The campaign covered roughly 310,000 compounds. About 2,200 (0.71%) showed an effect of 50% or more. The effect is printed as a negative number. This is one part of the list.
Target: human ether-à-go-go-related gene (hERG) potassium channel (human, UniProt Q12809)
Assay: primary screen, population patch clamp on CHO cells stably expressing hERG

human ether-à-go-go-related gene (hERG) potassium channel, sequence (Q12809 whole entry, looked up): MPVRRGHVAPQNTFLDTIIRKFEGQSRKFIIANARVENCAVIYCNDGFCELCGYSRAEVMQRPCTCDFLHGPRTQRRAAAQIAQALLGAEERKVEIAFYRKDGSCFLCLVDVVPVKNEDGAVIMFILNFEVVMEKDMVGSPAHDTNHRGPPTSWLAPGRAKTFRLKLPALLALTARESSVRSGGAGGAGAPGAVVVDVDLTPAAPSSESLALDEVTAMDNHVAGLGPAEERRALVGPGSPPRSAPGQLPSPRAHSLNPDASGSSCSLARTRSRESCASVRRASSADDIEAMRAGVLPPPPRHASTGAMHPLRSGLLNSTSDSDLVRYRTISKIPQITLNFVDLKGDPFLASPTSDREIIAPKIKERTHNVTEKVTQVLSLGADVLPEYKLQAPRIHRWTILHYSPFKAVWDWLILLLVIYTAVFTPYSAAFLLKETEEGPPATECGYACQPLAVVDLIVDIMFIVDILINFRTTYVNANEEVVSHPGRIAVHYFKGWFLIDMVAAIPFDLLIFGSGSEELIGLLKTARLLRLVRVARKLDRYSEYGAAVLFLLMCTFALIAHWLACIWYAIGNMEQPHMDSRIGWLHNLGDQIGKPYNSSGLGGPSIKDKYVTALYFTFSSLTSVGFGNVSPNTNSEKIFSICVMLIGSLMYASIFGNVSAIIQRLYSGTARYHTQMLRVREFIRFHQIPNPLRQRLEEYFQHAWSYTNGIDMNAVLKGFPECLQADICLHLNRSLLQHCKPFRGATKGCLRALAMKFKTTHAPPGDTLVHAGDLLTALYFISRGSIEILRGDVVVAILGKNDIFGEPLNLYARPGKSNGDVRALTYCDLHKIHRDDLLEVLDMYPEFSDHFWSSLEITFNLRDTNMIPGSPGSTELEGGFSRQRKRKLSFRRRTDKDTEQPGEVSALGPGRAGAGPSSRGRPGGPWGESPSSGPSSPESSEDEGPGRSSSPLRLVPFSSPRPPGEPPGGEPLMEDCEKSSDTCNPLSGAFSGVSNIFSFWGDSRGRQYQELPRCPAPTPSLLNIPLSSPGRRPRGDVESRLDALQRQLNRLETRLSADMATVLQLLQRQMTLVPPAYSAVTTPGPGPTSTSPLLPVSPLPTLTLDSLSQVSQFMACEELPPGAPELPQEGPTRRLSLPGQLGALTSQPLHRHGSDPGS

Going from N#CCCN1CCN(C(=O)c2c(N)no[n+]2[O-])CC1 to Cc1noc(C)c1CSCC(=O)N1CCN(c2ccc(F)cc2)CC1, the “hERG current change (%, negative = inhibition) at 1uM” value falls from 9.05% to -17.9%.

Compared with COc1ccc(C(=O)N/C(=C\c2ccccc2)C(=O)Nc2ccc(C(=O)NCC(=O)O)cc2)cc1, O=C(CN1C(=O)S/C(=C/C=C/c2ccccc2)C1=O)Nc1ccc(C(=O)O)cc1 is higher in “hERG current change (%, negative = inhibition) at 1uM” value: 7.82% for the first, 9.91% for the second.

Compared with CCC(=O)NC(c1ccccc1OC)c1ccc2cccnc2c1O (stereo not drawn), COc1ccccc1NC(=O)CN1C(=O)C(C)Oc2ccccc21 (stereo not drawn) is lower in “hERG current change (%, negative = inhibition) at 1uM” value: 4.64% for the first, 0.703% for the second.

Compared with COc1ccc(N2CCN(C(=O)CSc3nnc4c(C)cc5ccc(C)c(C)c5n34)CC2)cc1, O=C(c1ccc(Cl)c(S(=O)(=O)NCc2ccco2)c1)N1CCN(c2ccc(F)cc2)CC1 is lower in “hERG current change (%, negative = inhibition) at 1uM” value: 4.93% for the first, -14% for the second.

First: O=S(=O)(NCCc1csc(-c2ccccc2)n1)c1ccc2c(c1)OCCO2
Second: O=C(NCc1ccco1)c1cc(-c2ccccc2)on1
The “hERG current change (%, negative = inhibition) at 1uM” value of the first is lower: 10% for the first, 10.7% for the second.

First: Cc1cc(OC(C)C(=O)NCC2CCC(C(=O)O)CC2)c2c3c(c(=O)oc2c1)CCC3 (stereo not drawn)
Second: Cc1ccc(CNC(=O)CC(C)S(=O)(=O)c2cc3c(cc2C)NC(=O)CO3)cc1 (stereo not drawn)
The “hERG current change (%, negative = inhibition) at 1uM” value of the first is higher: 5.87% for the first, -3.74% for the second.

Going from Cc1c(Br)c([N+](=O)[O-])nn1CC(=O)NCC1CCCO1 (stereo not drawn) to Cc1cc(NC(=O)COc2cccnc2[N+](=O)[O-])no1, the “hERG current change (%, negative = inhibition) at 1uM” value falls from 20.8% to 10.7%.

First: COc1cccc(C2CC(c3cccs3)=NN2C(=O)c2ccco2)c1O (stereo not drawn)
Second: COc1ccc(C2CC(=O)c3c(ccc4ccccc34)N2)cc1OC (stereo not drawn)
The “hERG current change (%, negative = inhibition) at 1uM” value of the first is higher: 10.2% for the first, 2.1% for the second.

Going from COc1cc(/C=C/C(=O)OCC(=O)Nc2ccc(S(=O)(=O)N3CCCC3)cc2)ccc1O to COc1ccccc1CNC(=O)COC(=O)CNS(=O)(=O)c1ccc(NC(C)=O)cc1, the “hERG current change (%, negative = inhibition) at 1uM” value rises from 1.69% to 15.2%.

Going from CC1(C)Oc2ccc3ccc(=O)oc3c2[C@@H](O)[C@@H]1O to O=c1cc(-c2cccc(Cl)c2)oc2cccc(O)c12, the “hERG current change (%, negative = inhibition) at 1uM” value falls from 16.3% to 4.53%.

Compared with O=C(O)C1C2C=CC(C2)C1C(=O)NCc1cccs1 (stereo not drawn), Cc1csc(NC(=O)C2C3C=CC(O3)C2C(=O)O)n1 (stereo not drawn) is higher in “hERG current change (%, negative = inhibition) at 1uM” value: 12.4% for the first, 14.6% for the second.

Compared with COc1ccc(OC)c2[nH]c(=O)c(CCNC(=O)C(C)(C)C)cc12, CCOCc1nnc(NC(=O)c2c(OC)cccc2OC)s1 is higher in “hERG current change (%, negative = inhibition) at 1uM” value: 12% for the first, 16.4% for the second.

Compared with COc1ccc(CN2C(=O)CC(Cc3cc(C)cc(C)c3)C2=O)cc1OC (stereo not drawn), Cc1cc(C)cc(NC(=O)Cn2nnc(C(=O)NCc3ccccc3Cl)c2N)c1 is higher in “hERG current change (%, negative = inhibition) at 1uM” value: 1.48% for the first, 13.6% for the second.

Going from Cc1ccc(CNC(=O)CCCC(=O)Nc2cc(C)on2)cc1 to Cc1ccc(C(=O)CCC(=O)Nc2cccnc2)cc1C, the “hERG current change (%, negative = inhibition) at 1uM” value rises from 11.7% to 14.3%.

Compared with Cc1c(NC(=O)CSc2ncnc3ccccc23)c(=O)n(-c2ccccc2)n1C, Cc1cccc(C2c3[nH]c4ccccc4c3CCN2C(=O)c2cc(CC(C)C)[nH]c(=O)n2)n1 (stereo not drawn) is lower in “hERG current change (%, negative = inhibition) at 1uM” value: 14.7% for the first, 1.82% for the second.

Compared with CC(=O)N(C)CC#CCN1CCCC(CO)C1 (stereo not drawn), C=C(C)CCC(C)N1CCC(n2nccc2NC(=O)CCCc2ccccc2)CC1 (stereo not drawn) is lower in “hERG current change (%, negative = inhibition) at 1uM” value: 7.08% for the first, -16.2% for the second.

Compared with O=C1C2CC=CCC2C(=O)N1c1ccc(N2CCN(c3ccccn3)CC2)c([N+](=O)[O-])c1 (stereo not drawn), CCC(=O)N1CCCc2cc(S(=O)(=O)N3CCN(c4ccccn4)CC3)ccc21 is lower in “hERG current change (%, negative = inhibition) at 1uM” value: 14.2% for the first, 0.367% for the second.

First: Cc1ccc2sc(N(CCCN(C)C)C(=O)c3nc4ccccc4s3)nc2c1C.Cl
Second: Cc1ccc(-n2c(CCc3nc4ccccc4[nH]3)n[nH]c2=S)cc1
The “hERG current change (%, negative = inhibition) at 1uM” value of the first is lower: 4.84% for the first, 12.7% for the second.

First: CCN(CC)C(=O)CSC(=Nc1ccccc1F)NC#N
Second: O=C(CCC(=O)c1ccc(Cl)cc1)NCc1ccccc1
The “hERG current change (%, negative = inhibition) at 1uM” value of the first is lower: 5.87% for the first, 47.3% for the second.

Going from CC(Oc1cccc(Cl)c1)C(=O)Nc1cc(Cl)ccc1N1CCOCC1 (stereo not drawn) to CC(C)(C)Nc1nc(Oc2ccc(=O)n(-c3ccccc3)n2)nc(N2CCOCC2)n1, the “hERG current change (%, negative = inhibition) at 1uM” value falls from 6.59% to -8.49%.

Compared with CNC(=O)COc1ccc(C=O)cc1OC, COCCNCCOc1ccc(C)cc1[N+](=O)[O-].O=C(O)C(=O)O is lower in “hERG current change (%, negative = inhibition) at 1uM” value: 8.12% for the first, -8.77% for the second.

First: N#Cc1ccc(-c2ccc(Cl)cc2)nc1SCC(=O)c1cccc(Cl)c1
Second: Cc1ccc(S(=O)(=O)N(Cc2cccc(Cl)c2)C(=O)N2CCN(C)CC2)cc1
The “hERG current change (%, negative = inhibition) at 1uM” value of the first is higher: 24.1% for the first, 9.89% for the second.

Going from Nc1ncnc2c1cnn2C1CCCCC1 to CCN1CCN(c2ncnc3c2cnn3-c2ccc(C)cc2C)CC1, the “hERG current change (%, negative = inhibition) at 1uM” value falls from 13.2% to 5.51%.

First: COC(=O)c1sc(NC(=O)CSc2nc3nc(C)cc(C)n3n2)c(C(=O)OC)c1C
Second: CCOC(=O)c1sc2nc3c(SCC(=O)O)cc(C(=O)c4cc(F)ccc4O)cn3c(=O)c2c1C
The “hERG current change (%, negative = inhibition) at 1uM” value of the first is lower: -8.79% for the first, 8.65% for the second.

Compared with O=C(N/N=C1\CCCc2c1[nH]c1ccc([N+](=O)[O-])cc21)c1ccncc1, COc1ccc(/C=C/C(=O)NCC(=O)N=Nc2c(O)[nH]c3ccc([N+](=O)[O-])cc23)cc1 is higher in “hERG current change (%, negative = inhibition) at 1uM” value: -1.41% for the first, 14.4% for the second.

Compared with Oc1cccc(/C=N/Nc2nn3cnnc3c3ccccc23)c1, S=C(NCc1ccccc1)NCc1cccc(Cl)c1 is higher in “hERG current change (%, negative = inhibition) at 1uM” value: 10.1% for the first, 12.3% for the second.

First: COc1ccccc1N(CC(=O)NC1CCCC1)C(=O)c1cnn(C(C)C)c1
Second: O=C(COC(=O)c1ccc(C(F)(F)F)cc1)NC(=O)NC1CCCC1
The “hERG current change (%, negative = inhibition) at 1uM” value of the first is lower: 8.33% for the first, 12.8% for the second.

Compared with COc1ccc2occ(C(=O)c3ccc(N=C(C)N(C)C)cc3)c2c1, CN(C)c1ccnc2sc(C(=O)c3ccc(Br)cc3)c(N)c12 is higher in “hERG current change (%, negative = inhibition) at 1uM” value: -25.9% for the first, 9.2% for the second.

Compared with CCOC(=O)C1CCCN(C2=NC(=O)/C(=C/c3ccc(OC)cc3)S2)C1 (stereo not drawn), COc1ccc(CNC(=O)C(C#N)c2nc3ccccc3nc2N2CCCC2)cc1 (stereo not drawn) is higher in “hERG current change (%, negative = inhibition) at 1uM” value: 9.92% for the first, 10.5% for the second.

Compared with CC(=O)c1ccc(NC(=O)C(C)Sc2ccccn2)cc1 (stereo not drawn), CCN(CC)C(=O)c1ccc(NS(=O)(=O)c2ccc(/C=C/C(=O)O)cc2)cc1 is higher in “hERG current change (%, negative = inhibition) at 1uM” value: 9.91% for the first, 12.9% for the second.

First: CC(=O)Nc1cccc2c1C(=O)NC2=O
Second: CC(=O)c1ccc(S(=O)(=O)Nc2cc3c(cc2C(C)=O)OCO3)cc1
The “hERG current change (%, negative = inhibition) at 1uM” value of the first is lower: 7.84% for the first, 21.7% for the second.

First: COc1ccc(N(CC(=O)Nc2ccc3c(c2)OCO3)S(=O)(=O)c2ccc(F)cc2)cc1
Second: Cc1ccc(-c2noc(=O)n2CC(=O)Nc2ccc(S(=O)(=O)NC3CC3)cc2)cc1
The “hERG current change (%, negative = inhibition) at 1uM” value of the first is higher: 16.6% for the first, 10.4% for the second.

Going from CC#CCN1c2ccccc2[C@]23C[C@@H](C(=O)OC)N=C2NC(C(=O)OC)=C(C(=O)OC)[C@H]13 to CCOC(=O)N1CCN(C(=S)Nc2cc(OC)c(OC)cc2C(=O)OC)CC1, the “hERG current change (%, negative = inhibition) at 1uM” value rises from 5.41% to 12.3%.

Going from Cc1cccc(N=Nc2cn[nH]c2-c2ccco2)c1 to CCn1cc(CN2CCC(C(=O)Nc3cccc(-c4cccc(OC)c4)c3)CC2)cn1, the “hERG current change (%, negative = inhibition) at 1uM” value falls from 7.83% to -24.5%.

First: Fc1ccc(CCNC(=S)Nc2ccc(F)cc2)cc1
Second: O=C(Nc1ccccc1)c1ccccc1N=Cc1ccccc1O
The “hERG current change (%, negative = inhibition) at 1uM” value of the first is lower: 6.26% for the first, 13.4% for the second.

Compared with C/C(=N/NC(=O)c1cccs1)c1cccc(NC(=O)C2CC2)c1, CCc1nnc(NC(=O)C(NC(=O)c2ccccc2Cl)C(C)C)s1 (stereo not drawn) is lower in “hERG current change (%, negative = inhibition) at 1uM” value: 8.65% for the first, 8.17% for the second.

First: CN(C)C(=O)CSc1nnc(CCNC(=O)OC(C)(C)C)o1
Second: Cc1nn(C)c(C)c1S(=O)(=O)N(CC(=O)NCCCOC(C)C)c1ccc(C(C)C)cc1
The “hERG current change (%, negative = inhibition) at 1uM” value of the first is higher: -7.2% for the first, -41% for the second.

Going from O=C(O)c1cccc(S(=O)(=O)N2CCCC(c3nc4c(nnn4Cc4ccccc4Cl)c(=O)[nH]3)C2)c1 (stereo not drawn) to COC(=O)CN1C(=O)[C@H]2[C@@H](C3CC3)N3C(=O)CN(Cc4ccccn4)C(=O)[C@@]3(Cc3ccccc3)[C@H]2C1=O, the “hERG current change (%, negative = inhibition) at 1uM” value falls from 13.3% to 3.1%.

First: Brc1cccc(OCCN2CCOCC2)c1.O=C(O)C(=O)O
Second: O=C(CNS(=O)(=O)N1CCOCC1)N/N=C/c1cccnc1
The “hERG current change (%, negative = inhibition) at 1uM” value of the first is higher: 15.4% for the first, 8.17% for the second.

Compared with Nc1c(Cl)c(Cl)nc(C(=O)OCC(=O)N2CCCC2=O)c1Cl, CCCCn1c(N)c(N(CCOC)C(=O)COC(=O)C(C)(C)Oc2ccc(Cl)cc2)c(=O)[nH]c1=O is higher in “hERG current change (%, negative = inhibition) at 1uM” value: 4.38% for the first, 4.64% for the second.

First: Cc1ccc(C)c(N2CCN(C(=O)C34CC5CC(C3)CC(n3nnc(C)n3)(C5)C4)CC2)c1
Second: CCCn1c(SCC(=O)Nc2nc3c(s2)CCCC3)nc2c1c(=O)n(C)c(=O)n2C
The “hERG current change (%, negative = inhibition) at 1uM” value of the first is higher: 3.18% for the first, 0.843% for the second.

Going from C[N+]1(C)C2CC(OC(=O)C(CO)c3ccccc3)CC1C1OC12.[Br-] (stereo not drawn) to COC(=O)[C@]1(Cc2ccccc2)N[C@H](c2ccc(-c3ccc(OC)cc3)cc2)[C@@H]2C(=O)N(C)C(=O)[C@@H]21.O=C(O)C(F)(F)F, the “hERG current change (%, negative = inhibition) at 1uM” value rises from 9.8% to 10.6%.

Reference: publication PMC4336329 (PLoS ONE, 2015)
